# According to publication PMC4336329 (PLoS ONE, 2015):
# Out of some 310,000 compounds screened, about 14,000 (4.5%) showed an effect of 50% or more. Effects have a minus sign here. Some of the results follow.
# Molecular target: human ether-à-go-go-related gene (hERG) potassium channel (human, UniProt Q12809)
# Assay: primary screen, population patch clamp on CHO cells stably expressing hERG
# 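Also: peak tail current of the secondary pulse compared with the same well before compound.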
# Chain of human ether-à-go-go-related gene (hERG) potassium channel (Q12809 whole entry, looked up): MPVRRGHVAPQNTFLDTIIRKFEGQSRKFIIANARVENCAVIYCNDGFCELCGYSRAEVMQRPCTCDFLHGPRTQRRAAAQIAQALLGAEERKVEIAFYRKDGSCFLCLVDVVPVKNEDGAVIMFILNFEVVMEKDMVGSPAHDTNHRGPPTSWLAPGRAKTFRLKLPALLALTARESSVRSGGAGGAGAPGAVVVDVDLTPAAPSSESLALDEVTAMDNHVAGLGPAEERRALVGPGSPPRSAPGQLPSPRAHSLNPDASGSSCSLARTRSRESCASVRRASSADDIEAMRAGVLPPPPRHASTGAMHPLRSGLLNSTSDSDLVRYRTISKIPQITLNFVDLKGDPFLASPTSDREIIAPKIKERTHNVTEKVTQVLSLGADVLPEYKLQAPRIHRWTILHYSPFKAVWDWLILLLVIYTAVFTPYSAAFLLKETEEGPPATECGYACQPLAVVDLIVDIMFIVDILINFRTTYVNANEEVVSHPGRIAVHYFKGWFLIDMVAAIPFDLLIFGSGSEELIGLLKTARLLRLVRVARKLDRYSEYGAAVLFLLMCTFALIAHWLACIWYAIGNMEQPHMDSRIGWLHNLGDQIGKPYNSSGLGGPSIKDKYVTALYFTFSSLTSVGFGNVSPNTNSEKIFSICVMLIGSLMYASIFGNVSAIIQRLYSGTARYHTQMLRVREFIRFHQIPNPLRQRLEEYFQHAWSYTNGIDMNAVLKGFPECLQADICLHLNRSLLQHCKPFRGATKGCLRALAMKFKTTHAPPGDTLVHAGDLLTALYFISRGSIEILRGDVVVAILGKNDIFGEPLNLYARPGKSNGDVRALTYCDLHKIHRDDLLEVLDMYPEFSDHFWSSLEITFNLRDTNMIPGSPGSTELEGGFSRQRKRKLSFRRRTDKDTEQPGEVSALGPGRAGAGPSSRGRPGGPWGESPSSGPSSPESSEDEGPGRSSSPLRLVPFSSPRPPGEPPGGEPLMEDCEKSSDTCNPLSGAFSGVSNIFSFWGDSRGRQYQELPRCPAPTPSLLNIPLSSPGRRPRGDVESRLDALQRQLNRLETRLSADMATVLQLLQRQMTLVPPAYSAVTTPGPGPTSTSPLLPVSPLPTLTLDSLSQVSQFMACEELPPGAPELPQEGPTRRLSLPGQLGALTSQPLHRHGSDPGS
row,SMILES,"hERG current change (%, negative = inhibition) at 10uM [%]"
1,CC(=O)c1ccccc1NC(=O)COC(=O)c1ccccc1NC(=O)c1ccccc1,-16.1
2,CC(=O)Nc1ccc(S(=O)(=O)N2CCSC2c2ccc(C)cc2)cc1 (stereo not drawn),2.9
3,CCCS(=O)(=O)Nc1ccc2cn[nH]c2c1,11.7
4,c1ccc(CNc2ncnc3c2cnn3Cc2ccccc2)cc1,-22
5,CC12CC3CC(C)(C1)CC(C(=O)NCc1cccnc1)(C3)C2,-11.6
6,CCOc1ccc(N2C(=O)c3cccnc3C2Nc2ccc(F)cc2)cc1 (stereo not drawn),-10.9
7,CCOc1ccc(C(=O)NCC(=O)NCC(c2ccc(OC)cc2)N2CCCC2)cc1 (stereo not drawn),-4.71
8,O=C(NC(Cc1ccccc1)C(=O)O)/C(=C/c1ccco1)NC(=O)c1cccc(Br)c1 (stereo not drawn),8.9
9,O=C(Nc1ccc(Cl)cc1)N(C1=NCCC1)c1ccc(OC(F)F)cc1,-8.02
10,COCCCn1c(SCC(=O)NC2CCS(=O)(=O)C2)nnc1-c1ccc(Cl)cc1 (stereo not drawn),10.5
11,CC(=O)N/C(=C\c1ccccc1)C(=O)OCC(=O)c1ccc(F)cc1,-16.4
12,CCN(CC)S(=O)(=O)c1ccc(/C=C/C(=O)OCC(=O)NCc2cccs2)cc1,-39.3
13,Cc1ccc(S(=O)(=O)Nc2cc(=O)[nH]c3c2CCC3)cc1,-6.49
14,CC(C)c1ccc(/C=C2\SC(=O)N(CC(=O)NC3CCS(=O)(=O)C3)C2=O)cc1 (stereo not drawn),14.7
15,COc1ccccc1C(C)NCC(=O)Nc1ccccc1C(F)(F)F.O=C(O)C(=O)O (stereo not drawn),-14.1
16,CCCc1nn(C)c(C(=O)Nc2cccc3ccccc23)c1Cl,6.06
17,O=C(CSc1nc(=O)n2cc(Cl)ccc2n1)NCCc1ccccc1,-36.7
18,COc1ccccc1N1CCN(c2ccc3ccccc3n2)CC1,-36.5
19,CC1CCN(C(=S)NC2CC3CCC2C3)CC1 (stereo not drawn),-8.35
20,COc1ccc(-c2nnc(SCc3ccc(C(=O)O)cc3)o2)cc1OC,13.7
21,O=C(OCc1csc(Nc2ccccc2)n1)c1ccc(Cl)cc1,7.76
22,C=CCNC(=O)c1nn2cccnc2c1Cl,12.7

row,SMILES,"hERG current change (%, negative = inhibition) at 10uM [%]"
1,COC(=O)Cn1cc(C(=O)c2cccs2)c2ccccc21,-5.76
2,CCC(=O)NCCc1nc2cc(NC(=O)Nc3ccccc3)ccc2n1C,18.8
3,CSCCC(NS(=O)(=O)c1ccccc1F)C(=O)NCC(C)(C)N1CCOCC1 (stereo not drawn),-4.05
4,CN(C)N1C(N)=C(C#N)C(c2ccc(Cl)cc2)C2=C1CCCC2=O (stereo not drawn),-20.1
5,CCOc1ccccc1CN1CCN(Cc2cn(C)nc2-c2ccccc2)CC1CCO (stereo not drawn),-65.6
6,Cc1ccc(CNC(=O)[C@H](Cc2ccccc2)NC(=O)C2CCNCC2)cc1,-9.1
7,COc1cc(OC)cc(-c2cc3nc(C)c(CCC(=O)NCc4ccccc4)c(C)n3n2)c1,-33.8
8,CC#CCN1c2ccccc2[C@]23C[C@@H](C(=O)OC)N(C(=O)C4CCC4)C2=NC(C(=O)OC)=C(C(=O)OC)[C@H]13,-10
9,COc1ccc(CCNC(=O)c2cc(C(=O)c3cc(Cl)ccc3O)cn(CCc3ccc(OC)cc3)c2=O)cc1,-3.37
10,CC1CCCC(NC(=O)COC(=O)c2ccc(N(C)C)cc2)C1C (stereo not drawn),-1.77
11,O=c1cc(-c2cccnc2)oc2c1ccc1ccccc12,-25.6
12,CCOc1ccc(S(=O)(=O)N2CCCC(C(=O)NCC3CCCO3)C2)cc1Cl (stereo not drawn),-17.4
13,Brc1ccc(OCc2nnc3n2CCC3)cc1,-14
14,CCc1ccc(-n2c(SCC(=O)Nc3cc(C)[nH]n3)nc3[nH]ncc3c2=O)cc1,-9.53
15,Cc1cccc(N2CCN(C(=O)CCCn3c(=O)c4cccn4c4cccnc43)CC2)c1C,-34.1
16,CC(C)(C)c1nc(S(=O)(=O)c2ccc(Cl)cc2)c(N2CCOCC2)o1,-14.2
17,C=CCOc1ccc(CNc2ccc(NC(=O)CC(C)C)cc2)cc1OC,12.2
18,CSc1ccc(Cl)c(C(=O)OCC(=O)Nc2ccccc2OC(F)F)c1,0.448
19,Oc1[nH]c2ccccc2c1N=Nc1ccc(F)cc1,10.9
20,CCNC(=O)n1nccc1C(C)Oc1ccccc1 (stereo not drawn),-29.4
21,Cc1ccc2cc(CN(C(=O)c3ccco3)c3ccccc3C)c(=O)[nH]c2c1,-3.3
22,Nc1cccc(-c2cn(-c3cc4cc(C#CC5(O)CCCCC5)ccc4oc3=O)nn2)c1,14.8

row,SMILES,"hERG current change (%, negative = inhibition) at 10uM [%]"
1,CCNc1nc(NCC)n2c(SCc3nc4ccccc4c(=O)[nH]3)nnc2n1,7.42
2,COc1ccccc1-n1c(O)c(C=NCCN2CCNCC2)c(=O)[nH]c1=O,14.4
3,Cc1ccc(C)c(OCC(O)CN2CCC(CN3C(=O)c4cccc5cccc(c45)C3=O)CC2)c1.Cl (stereo not drawn),-68.2
4,O=C(COC(=O)Cc1c(Cl)cccc1Cl)Nc1ccccc1-c1ccccc1,-0.758
5,CCc1nnc(NS(=O)(=O)c2ccc(N/C=C\C(=O)c3cccc4ccccc34)cc2)s1,1.69
6,Cn1c(CC(=O)NNC(=O)c2ccc(F)cc2Cl)nc2ccccc21,-7.88
7,CCOC(=O)N1CCN(C(=O)CCS(=O)(=O)c2ccc3c(c2)CCN3C(=O)CC)CC1,14.4
8,COc1ccc(C2=NN(C(=O)COc3ncnc4ccccc34)C(c3ccco3)C2)cc1 (stereo not drawn),5.03
9,Cc1cccc(OCCCC(=O)N2CCCc3ccccc32)c1C,14.1
10,CCOc1ccc(N(C(C)C(=O)N2CCCCCC2)S(C)(=O)=O)cc1 (stereo not drawn),-6.65
11,O=C(O)c1c2c(nc3ccccc13)/C(=C/c1ccc(O)cc1)CCC2,-0.0981
12,Cc1[nH+]csc1CCOC(=O)c1ccc(N2CCOCC2)c([N+](=O)[O-])c1.[Cl-],-21.2
13,COc1ccc(CCNC(=O)CC2Oc3ccc(Cl)cc3NC2=O)cc1OC (stereo not drawn),-25.9
14,COc1ccc2[nH]c(=O)c(-c3noc(-c4ccccc4)n3)cc2c1,-0.646
15,O=C(O)Cc1ccccc1C(=O)O,-7.48
16,CC(CNC(=O)C1CCCCC1C(=O)O)c1ccccc1 (stereo not drawn),-0.787
17,CCOC(=O)c1ccc(S(=O)(=O)NC2CCCCCCC2)n1C,-12.4
18,CN(Cc1nc(-c2ccccc2)no1)C(=O)c1ccco1,16.8
19,CCN(CC)CCSc1nc2ccccc2c(=S)n1-c1ccccc1.Cl,-51.9
20,COC(=O)c1ccccc1CC1SC(N)=NC1=O (stereo not drawn),24.6
21,CCOC(=O)C1CCN(C(=O)C2CCN(c3nc4ccc(OC)cc4s3)CC2)CC1,-67.6
22,Cc1cn2c(nc1=O)OC1CC2OC1CO (stereo not drawn),13.9

row,SMILES,"hERG current change (%, negative = inhibition) at 10uM [%]"
1,C=CCOC(=O)C1=C(C)Nc2ncnn2C1c1cc(Br)ccc1F (stereo not drawn),3.99
2,O=C1Nc2ccccc2/C1=C/c1ccccc1F,26.3
3,COc1ccccc1CNC(=O)CC(NS(=O)(=O)c1ccc(C)cc1)c1ccco1 (stereo not drawn),-4.33
4,COCCNC(=O)CN(Cc1ccccc1)C(=O)CCC(=O)Nc1nccs1,16.4
5,CNc1nc(Oc2ccc(=O)n(C)n2)nc(N2CCOCC2)n1,0.884
6,Cc1ccc(N=C(/N=C(\N)N[N+](=O)[O-])Nc2ccc(C)cc2)cc1,-0.621
7,OC(CNCc1ccc(Cl)cc1)(c1ccccc1)c1ccc(F)cc1 (stereo not drawn),-4.52
8,CCOC(=O)Cc1csc(NC(=O)c2ccco2)n1,0.229
9,C=CCNC(=O)C1CC(=O)N(c2ccc(OCC(=O)N3CCCC3)cc2)C1 (stereo not drawn),18.2
10,COC(=O)C(C)Sc1nnc(SC(C)C(=O)OC)s1 (stereo not drawn),22.3
11,Cn1c(O)c(N=NC(=O)Cn2c(C(F)(F)F)nc3ccccc32)c2ccccc21,6.02
12,Cc1ccc(N=Cc2c(O)c3ccccc3n(C)c2=O)cc1,16.6
13,N#C/C(=C(/O)c1cccc(F)c1)c1nc2ccccc2s1,24.8
14,CS(=O)(=O)c1ccccc1-c1nnc(NC(=O)COc2ccc(Cl)cc2)o1,-6.82
15,COc1ccc(OC)c(/C=N/NC(=O)c2nnn(-c3nonc3N)c2-c2cccs2)c1,15.2
16,COc1ccc(NC(=S)NNC(=O)CCn2cc([N+](=O)[O-])cn2)cc1,14.4
17,O=C1NC[C@H](c2ccccc2)N(CCc2cccc3ccccc23)C1=O,-21
18,COc1ccc(NC(=O)/C=C/c2ccc(OC(F)F)cc2)cn1,-24.7
19,COC(=O)c1ccc(N=NNc2ccccc2)cc1,4.36
20,COC(=O)C1=C(c2cc3ccccc3s2)C[C@@H]2CC[C@H]1N2C(=O)NCc1cccc2ccccc12,14.7
21,O=C(NCCN1CCOCC1)c1ccc2ccccc2c1,12.8
